# Data: the supplement of paper PMC8728848
# The other results are listed elsewhere or left out.
# B1: PX14367B-bvu-516-23-516 (Bacteroides vulgatus) (protein)
# chain: LDTIPTTYVDAGSVFGKTGDAEKVLNGGWNYLMETFNSYANPGYGAMLRANDAMGSDVVLNSKYGFRTHNEFSAIYGKGGTNTLSWLLAYRVINDCNGVLDNIDAAEGTQADRNRIKGQALALRGFLYLHLASCYSFAIDKDPDAVCAPIYTQSTDETIAAEGKPASSVSEVYAQSINDLEEALELIPETYVRDAKHKIDNEVVLGILSRACLYARQWEKAKTYSDKLLAKDNYLMTESEYKAGFNSVDNKEWIWGHAQTNDQSNASYQFHYLDTTTKGSYYYSFNVDPYFRDLFEDGDYRKEMLFWATDPGADVESAAYVWMRNSKFRFRDIENQLGDIVLMRVAEIYLINAEAKAHLNDPDAINKLNDLKTARGAKTIHTNLSQQDLLETIWLERRKELWGEGFSLIDIIRNQQTVVRNAYPEGPIDYIYTDENGQTHTLKKKTQGHRFFNFPDKSAFCPNSKYYLYRITDSEELANKNLYKDHPKLSIYTK
# Tests used:
# Assay in all cases: glycan array binding signal (z-score within array); higher = stronger binding
# Settings in all cases: glycan notation: IUPAC condensed, linker removed
# [1] = biological target: GlcNAc(b1-2)Gal(b1-3)GalNAc
# Method in brief: (§1)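 Arrays were curated from the Consortium for Functional Glycomics database, 3228 in total, and kept only where the protein sequence was available. Binding is expressed as a within-array Z-score. This score was averaged across arrays of the same protein sequence at different concentrations or buffers and across linkers, and negative values can be read as non-binding.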
# [2] = biological target: GlcNAc(b1-2)Man(a1-3)[GlcNAc(b1-2)Man(a1-6)]Man(b1-4)GlcNAc(b1-4)GlcNAc
# Method in brief: as §1
# [3] = biological target: GlcNAc(b1-2)Man(a1-3)[GlcNAc(b1-2)Man(a1-6)]Man(b1-4)GlcNAc(b1-4)[Fuc(a1-6)]GlcNAc
# Method in brief: as §1
# [4] = biological target: GlcNAc(b1-2)Man(a1-3)[GlcNAc(b1-4)][GlcNAc(b1-2)Man(a1-6)]Man(b1-4)GlcNAc(b1-4)GlcNAc
# Method in brief: as §1
# [5] = biological target: GlcNAc(b1-2)Man(a1-3)[GlcNAc(b1-4)][GlcNAc(b1-2)Man(a1-6)]Man(b1-4)GlcNAc(b1-4)[Fuc(a1-6)]GlcNAc
# Method in brief: as §1
# [6] = biological target: GlcNAc(b1-2)[GlcNAc(b1-4)]Man(a1-3)[GlcNAc(b1-2)Man(a1-6)]Man(b1-4)GlcNAc(b1-4)GlcNAc
# Method in brief: as §1
# [7] = biological target: GlcNAc(b1-2)[GlcNAc(b1-4)]Man(a1-3)[GlcNAc(b1-4)][GlcNAc(b1-2)Man(a1-6)]Man(b1-4)GlcNAc(b1-4)GlcNAc
# Method in brief: as §1
# [8] = biological target: GlcNAc(b1-2)[GlcNAc(b1-4)]Man(a1-3)[GlcNAc(b1-4)][GlcNAc(b1-2)[GlcNAc(b1-6)]Man(a1-6)]Man(b1-4)GlcNAc(b1-4)GlcNAc
# Method in brief: as §1
# [9] = biological target: GlcNAc(b1-2)[GlcNAc(b1-4)]Man(a1-3)[GlcNAc(b1-4)][GlcNAc(b1-2)[GlcNAc(b1-6)]Man(a1-6)]Man(b1-4)GlcNAc(b1-4)[Fuc(a1-6)]GlcNAc
# Method in brief: as §1
# [10] = biological target: GlcNAc(b1-2)[GlcNAc(b1-6)]Man(a1-6)[GlcNAc(b1-2)Man(a1-3)]Man(b1-4)GlcNAc(b1-4)GlcNAc
# Method in brief: as §1
# [11] = biological target: GlcNAc(b1-2)[GlcNAc(b1-6)]Man(a1-6)[GlcNAc(b1-2)Man(a1-3)]Man(b1-4)GlcNAc(b1-4)[Fuc(a1-6)]GlcNAc
# Method in brief: as §1
# [12] = biological target: GlcNAc(b1-2)[GlcNAc(b1-6)]Man(a1-6)[GlcNAc(b1-4)][GlcNAc(b1-2)Man(a1-3)]Man(b1-4)GlcNAc(b1-4)GlcNAc
# Method in brief: as §1
# [13] = biological target: GlcNAc(b1-3)Fuc
# Method in brief: as §1
# [14] = biological target: GlcNAc(b1-3)Gal
# Method in brief: as §1
# [15] = biological target: GlcNAc(b1-3)Gal(b1-3)GalNAc
# Method in brief: as §1
# [16] = biological target: GlcNAc(b1-3)Gal(b1-4)Glc
# Method in brief: as §1
# [17] = biological target: GlcNAc(b1-3)Gal(b1-4)GlcNAc
# Method in brief: as §1
# [18] = biological target: GlcNAc(b1-3)Gal(b1-4)GlcNAc(b1-2)Man(a1-3)[GlcNAc(b1-3)Gal(b1-4)GlcNAc(b1-2)Man(a1-6)]Man(b1-4)GlcNAc(b1-4)GlcNAc
# Method in brief: as §1
# [19] = biological target: GlcNAc(b1-3)Gal(b1-4)GlcNAc(b1-2)Man(a1-3)[GlcNAc(b1-3)Gal(b1-4)GlcNAc(b1-2)Man(a1-6)]Man(b1-4)GlcNAc(b1-4)[Fuc(a1-6)]GlcNAc
# Method in brief: as §1
# [20] = biological target: GlcNAc(b1-3)Gal(b1-4)GlcNAc(b1-2)[GlcNAc(b1-3)Gal(b1-4)GlcNAc(b1-6)]Man(a1-6)[GlcNAc(b1-3)Gal(b1-4)GlcNAc(b1-2)Man(a1-3)]Man(b1-4)GlcNAc(b1-4)GlcNAc
# Method in brief: as §1
# [21] = biological target: GlcNAc(b1-3)Gal(b1-4)GlcNAc(b1-3)Gal(b1-4)GlcNAc
# Method in brief: as §1
# [22] = biological target: GlcNAc(b1-3)Gal(b1-4)GlcNAc(b1-3)Gal(b1-4)GlcNAc(b1-2)Man(a1-3)[GlcNAc(b1-3)Gal(b1-4)GlcNAc(b1-3)Gal(b1-4)GlcNAc(b1-2)Man(a1-6)]Man(b1-4)GlcNAc(b1-4)GlcNAc
# Method in brief: as §1
# [23] = biological target: GlcNAc(b1-3)Gal(b1-4)GlcNAc(b1-3)Gal(b1-4)GlcNAc(b1-2)Man(a1-3)[GlcNAc(b1-3)Gal(b1-4)GlcNAc(b1-3)Gal(b1-4)GlcNAc(b1-2)Man(a1-6)]Man(b1-4)GlcNAc(b1-4)[Fuc(a1-6)]GlcNAc
# Method in brief: as §1
# [24] = biological target: GlcNAc(b1-3)Gal(b1-4)GlcNAc(b1-3)Gal(b1-4)GlcNAc(b1-2)[GlcNAc(b1-3)Gal(b1-4)GlcNAc(b1-3)Gal(b1-4)GlcNAc(b1-6)]Man(a1-6)[GlcNAc(b1-3)Gal(b1-4)GlcNAc(b1-3)Gal(b1-4)GlcNAc(b1-2)Man(a1-3)]Man(b1-4)GlcNAc(b1-4)[Fuc(a1-6)]GlcNAc
# Method in brief: as §1
# [25] = biological target: GlcNAc(b1-3)Gal(b1-4)GlcNAc(b1-3)Gal(b1-4)GlcNAc(b1-3)Gal(b1-4)GlcNAc(b1-2)Man(a1-3)[GlcNAc(b1-3)Gal(b1-4)GlcNAc(b1-3)Gal(b1-4)GlcNAc(b1-3)Gal(b1-4)GlcNAc(b1-2)Man(a1-6)]Man(b1-4)GlcNAc(b1-4)GlcNAc
# Method in brief: as §1
# [26] = biological target: GlcNAc(b1-3)Gal(b1-4)GlcNAc(b1-3)Gal(b1-4)GlcNAc(b1-3)Gal(b1-4)GlcNAc(b1-2)Man(a1-3)[GlcNAc(b1-3)Gal(b1-4)GlcNAc(b1-3)Gal(b1-4)GlcNAc(b1-3)Gal(b1-4)GlcNAc(b1-2)Man(a1-6)]Man(b1-4)GlcNAc(b1-4)[Fuc(a1-6)]GlcNAc
# Method in brief: as §1
# [27] = biological target: GlcNAc(b1-3)Gal(b1-4)GlcNAc(b1-3)Gal(b1-4)GlcNAc(b1-3)Gal(b1-4)GlcNAc(b1-2)[GlcNAc(b1-3)Gal(b1-4)GlcNAc(b1-3)Gal(b1-4)GlcNAc(b1-3)Gal(b1-4)GlcNAc(b1-6)]Man(a1-6)[GlcNAc(b1-3)Gal(b1-4)GlcNAc(b1-3)Gal(b1-4)GlcNAc(b1-3)Gal(b1-4)GlcNAc(b1-2)Man(a1-3)]Man(b1-4)GlcNAc(b1-4)[Fuc(a1-6)]GlcNAc
# Method in brief: as §1
# [28] = biological target: GlcNAc(b1-3)Gal(b1-4)GlcNAc(b1-3)Gal(b1-4)GlcNAc(b1-3)Gal(b1-4)GlcNAc(b1-3)Gal(b1-4)GlcNAc(b1-2)Man(a1-3)[GlcNAc(b1-3)Gal(b1-4)GlcNAc(b1-3)Gal(b1-4)GlcNAc(b1-3)Gal(b1-4)GlcNAc(b1-3)Gal(b1-4)GlcNAc(b1-2)Man(a1-6)]Man(b1-4)GlcNAc(b1-4)GlcNAc
# Method in brief: as §1
# [29] = biological target: GlcNAc(b1-3)Gal(b1-4)GlcNAc(b1-3)Gal(b1-4)GlcNAc(b1-3)Gal(b1-4)GlcNAc(b1-3)Gal(b1-4)GlcNAc(b1-2)Man(a1-3)[GlcNAc(b1-3)Gal(b1-4)GlcNAc(b1-3)Gal(b1-4)GlcNAc(b1-3)Gal(b1-4)GlcNAc(b1-3)Gal(b1-4)GlcNAc(b1-2)Man(a1-6)]Man(b1-4)GlcNAc(b1-4)[Fuc(a1-6)]GlcNAc
# Method in brief: as §1
# [30] = biological target: GlcNAc(b1-3)Gal(b1-4)GlcNAc(b1-3)Gal(b1-4)GlcNAc(b1-3)Gal(b1-4)GlcNAc(b1-3)Gal(b1-4)GlcNAc(b1-2)[GlcNAc(b1-3)Gal(b1-4)GlcNAc(b1-3)Gal(b1-4)GlcNAc(b1-3)Gal(b1-4)GlcNAc(b1-3)Gal(b1-4)GlcNAc(b1-6)]Man(a1-6)[GlcNAc(b1-3)Gal(b1-4)GlcNAc(b1-3)Gal(b1-4)GlcNAc(b1-3)Gal(b1-4)GlcNAc(b1-3)Gal(b1-4)GlcNAc(b1-2)Man(a1-3)]Man(b1-4)GlcNAc(b1-4)[Fuc(a1-6)]GlcNAc
# Method in brief: as §1
# [31] = biological target: GlcNAc(b1-3)Gal(b1-4)GlcNAc(b1-3)Gal(b1-4)GlcNAc(b1-3)GalNAc
# Method in brief: as §1
# [32] = biological target: GlcNAc(b1-3)Gal(b1-4)GlcNAc(b1-3)GalNAc
# Method in brief: as §1
# [33] = biological target: GlcNAc(b1-3)Gal(b1-4)GlcNAc(b1-3)[GlcNAc(b1-3)Gal(b1-4)GlcNAc(b1-3)]GalNAc
# Method in brief: as §1
# [34] = biological target: GlcNAc(b1-3)Gal(b1-4)GlcNAc(b1-6)[Gal(b1-3)]GalNAc
# Method in brief: as §1
# [35] = biological target: GlcNAc(b1-3)Gal(b1-4)GlcNAc(b1-6)[GlcNAc(b1-3)Gal(b1-3)]GalNAc
# Method in brief: as §1
# [36] = biological target: GlcNAc(b1-3)Gal(b1-4)GlcNAc(b1-6)[GlcNAc(b1-3)]Gal(b1-4)GlcNAc
# Method in brief: as §1
# [37] = biological target: GlcNAc(b1-3)GalNAc
# Method in brief: as §1
binder,measurement,setting,value
B1,glycan array binding signal (z-score),[1],-0.305
same,glycan array binding signal (z-score),[2],-0.267
same,glycan array binding signal (z-score),[3],-0.22
same,glycan array binding signal (z-score),[4],-0.304
same,glycan array binding signal (z-score),[5],-0.049
same,glycan array binding signal (z-score),[6],-0.294
same,glycan array binding signal (z-score),[7],-0.334
same,glycan array binding signal (z-score),[8],-0.297
same,glycan array binding signal (z-score),[9],-0.389
same,glycan array binding signal (z-score),[10],-0.082
same,glycan array binding signal (z-score),[11],-0.326
same,glycan array binding signal (z-score),[12],-0.314
same,glycan array binding signal (z-score),[13],-0.382
same,glycan array binding signal (z-score),[14],-0.302
same,glycan array binding signal (z-score),[15],-0.209
same,glycan array binding signal (z-score),[16],-0.323
same,glycan array binding signal (z-score),[17],-0.338
same,glycan array binding signal (z-score),[18],-0.242
same,glycan array binding signal (z-score),[19],-0.238
same,glycan array binding signal (z-score),[20],1.42
same,glycan array binding signal (z-score),[21],-0.331
same,glycan array binding signal (z-score),[22],-0.22
same,glycan array binding signal (z-score),[23],-0.169
same,glycan array binding signal (z-score),[24],0.081
same,glycan array binding signal (z-score),[25],2.37
same,glycan array binding signal (z-score),[26],0.057
same,glycan array binding signal (z-score),[27],2.54
same,glycan array binding signal (z-score),[28],-0.276
same,glycan array binding signal (z-score),[29],-0.264
same,glycan array binding signal (z-score),[30],1.67
same,glycan array binding signal (z-score),[31],-0.12
same,glycan array binding signal (z-score),[32],-0.208
same,glycan array binding signal (z-score),[33],-0.3
same,glycan array binding signal (z-score),[34],-0.323
same,glycan array binding signal (z-score),[35],-0.205
same,glycan array binding signal (z-score),[36],-0.263
same,glycan array binding signal (z-score),[37],-0.292
